The results in this text go back to US20240409609A1, “REVERSIBLE LYSINE COVALENT MODIFIERS OF EGFR AND USES THEREOF” (Terremoto Biosciences, Inc., priority 2021, published 2024).

The target in experiment [1] is EGFR L858R/T790M/C797S (Homo sapiens (Human), UniProt P00533, C797S/L858R/T790M). Kind of experiment: EGFR biochemical assay (AssayQuant chelation-enhanced fluorescence). The conditions noted are these: read-out: AssayQuant EGFR LR/TM/CS IC50; 30 min preincubation, reaction time 150 min.
Experiment [2] has as its target EGFR T790M C797S L858R in Ba/F3 cells (Homo sapiens (Human), UniProt P00533, C797S/L858R/T790M). Description: Ba/F3 pEGFR assay (AlphaLISA p-EGFR Tyr1068). It counts as cell-based. The conditions noted are these: 2 hrs treatment. The procedure:
(§1) Cellular activity was determined using the Ba/F3 system for studying oncogenic mutant kinases (Warmuth 2007). […] Transduced cells were maintained in RPMI 1640 with 10% FBS. EGFR WT transduced cells were grown in media supplemented with EGF. To assay cellular activity of inhibitors, cells were treated with inhibitor from 1000X DMSO stock dilutions and incubated for 2 hrs at 37° C. 5% CO2. Subsequently, p-EGFR (Tyr1068) was quantified using a commercial sandwich immunoassay (PerkinElmer AlphaLISA SureFire assay; ALSU-PEGFR) according to the manufacturer's instructions. […] Curr Opin Oncol 19, 55-60 (2007), which is incorporated herein in its entirety.

In experiment [3] the target is EGFR del746-750 T790M C797S in Ba/F3 cells (Homo sapiens (Human), UniProt P00533, C797S/DEL746-750/T790M). Description: Ba/F3 pEGFR assay (AlphaLISA p-EGFR Tyr1068). It counts as cell-based. The conditions noted are these: 2 hrs treatment; read-out: pEGFR Ba/F3 del19/T790M/C797S IC50. The procedure: as §1
(Alpha assays give light when donor and acceptor beads are brought close together.)

In experiment [4] the target is EGFR (d746-750) T790M C797S (Homo sapiens (Human), UniProt P00533, C797S/DEL746-750/T790M). Kind of experiment: EGFR biochemical assay (AssayQuant chelation-enhanced fluorescence). The conditions noted are these: read-out: AssayQuant EGFR del19/TM/CS IC50; 30 min preincubation, reaction time 150 min.

`CN1CCN(Cc2ccc3[nH]/c(=N\C(=O)c4ccnc(C#Cc5cccc(NC(=O)C(F)(F)F)c5C=O)c4)n(CC(C)(C)O)c3c2)CC1` [Compound 101]: the IC50 in experiment [1] is 18.8 nM; in experiment [2], 1480 nM; in experiment [3], 1310 nM; in experiment [4], 30.6 nM.
For `CN1CCN(Cc2ccc3[nH]/c(=N\C(=O)c4cc(C=O)nc(Oc5cccc(O)c5C=O)c4)n(CC(C)(C)O)c3c2)CC1` [Compound 81], in that order: 1.61 nM, 4940 nM, 7400 nM and 3.9 nM.
For `CN1CCN(Cc2ccc3[nH]/c(=N\C(=O)c4ccnc(C#Cc5cc(F)cc(O)c5C=O)c4)n(CC(C)(C)O)c3c2)CC1` [Compound 89], in that order: 6.01 nM, 3900 nM, 1560 nM and 6.82 nM.
For `CC(C)(O)Cn1/c(=N/C(=O)c2ccnc(Oc3cccc(O)c3C=O)c2)[nH]c2ccccc21` [Compound 121], in that order: 1.45 nM, 345 nM, 321 nM and 7.37 nM.
With `CC(C)(O)Cn1/c(=N/C(=O)c2ccnc(Oc3cccc(O)c3C=O)c2)[nH]c2ccc(N3CCOCC3)cc21` [Compound 74], the IC50 was 1.16 nM in experiment [1], 135 nM in experiment [2], 162 nM in experiment [3] and 6.22 nM in experiment [4].
`CN1CCN(Cc2ccc3[nH]/c(=N\C(=O)c4ccnc(C#Cc5cccc(N)c5C=O)c4)n(CC(C)(C)O)c3c2)CC1` [Compound 99]: the IC50 came to 17.9 nM in experiment [1], 229 nM in experiment [2], 99.6 nM in experiment [3] and 31.6 nM in experiment [4].
For `CN1CCN(Cc2ccc3[nH]/c(=N\C(=O)c4cccc(Oc5cccc(O)c5C=O)n4)n(CC(C)(C)O)c3c2)CC1` [Compound 93], in that order: 8.07 nM, 158 nM, 1170 nM and 356 nM.
On to `CC(=O)Nc1cccc(C#Cc2cc(C(=O)/N=c3\[nH]c4ccc(CN5CCN(C)CC5)cc4n3CC(C)(C)O)cc(C)n2)c1C=O` [Compound 97], for which the IC50 in experiment [1] was 13.8 nM; in experiment [2] it was 1160 nM; in experiment [3], 709 nM; in experiment [4] it was 29.1 nM.
For `Cc1cc(C(=O)/N=c2\[nH]c3ccc(CN4CCN(C)CC4)cc3n2CC(C)(C)O)cc(-n2cc(-c3cccc(O)c3C=O)cn2)n1` [Compound 102] the same measures were 28.5 nM, greater than 10000 nM, 6900 nM and 13.8 nM.
For the compound `O=Cc1c(O)cccc1Oc1cc(C(=O)/N=c2\[nH]c3ccccc3n2CCN2CCOCC2)ccn1` [Compound 123], the IC50 in experiment [1] was 7.42 nM; in experiment [2], 3800 nM; in experiment [3], greater than 10000 nM; in experiment [4] it was 116 nM.
For `O=Cc1c(O)cccc1Oc1cc(C(=O)/N=c2\[nH]c3ccccc3n2[C@H]2CC[C@@H](O)CC2)ccn1` [Compound 122] the same measures were 1.49 nM, 790 nM, 442 nM and 3.49 nM.
For `CC(C)(O)Cn1/c(=N/C(=O)c2ccnc(Oc3cccc(O)c3C=O)c2)[nH]c2ccc(CN3CCOCC3)cc21` [Compound 76] the same measures were 1.2 nM, 169 nM, 154 nM and 14.3 nM.
